Results: patent publication US10934346B2, “Modified T cell comprising a polynucleotide encoding an inducible stimulating molecule comprising MyD88, CD40 and FKBP12” (priority 2014, dated 2021)

Experiments:
iMC-modified T cells = assay: Cytokine/chemokine production (ELISA, multiplex array) and CD25 expression of iMC-modified T cells with rimiducid; conditions: 10 nM rimiducid
Protocol: FIGS. 1A-1H provide the results of assays showing that iMC functions provide inducible costimulation T cells. FIG. 1A) Schematic diagram of dimerization of the MyD88 and CD40 cytoplasmic signaling domains in T cells following rimiducid exposure. […] FIG. 1C) Analysis of IL-6 production following 10 nM treatment with rimiducid in T cells transduced with vectors containing only FKBPs, or inducible MyD88, inducible CD40 or iMC. FIG. 1D) Multiplex array measuring time-dependent phosphorylation JNK, RelA and p38 (MAPK) signaling molecules following transduced T cell exposure to 10 nM rimiducid. FIG. 1E) Western plot analyses of phosphorylated signaling proteins in T cells transduced with FKPBs or iMC following rimiducid treatment for 0, 15 and 60 minutes. Positive control indicates T cell treatment with PHA and ionomycin. FIG. 1F) T cells transduced with vectors containing only FKBPs, or inducible MyD88, inducible CD40 or iMC were activated with and without 10 nM rimiducid and/or 50 ng/ml soluble anti-CD3 and supernatants measured for IL-2 by ELISA and assessed for CD25 expression by flow cytometry (FIG. 1G and FIG. 1H). * indicates p-value <0.05.
FIGS. 9A and 9B provide assay results of the induction of cytokines by rimiducid in iMC-transduced T cells. […] Supernatants were then collected and analyzed using a multiplex cytokine/chemokine array.
Immunophenotyping. Gene-modified T cells were analyzed for iMC transgene expression 10-14 days post-transduction by using CD3-PerCP.Cy5 and CD19-PE (BioLegend). […] T cells were also analyzed for CD4, CD8 and CD25 (BioLegend) following activation with 10 nM rimiducid and Capan-1 tumor cells. All flow cytometry was performed using an LSRII flow cytometer (Becton Dickenson, East Rutherford, N.J.), and the data analyzed using FLOWJO (Tree star, Ashland, Oreg.) or KALUZA software (Beckman Coulter, Pasadena, Calif.).
Cytokine and chemokine production. Production of IFN-γ, IL-2 and IL-6 by T cells modified with iMC or control vectors were analyzed by ELISA per the manufacturer's protocol (eBioscience, San Diego, Calif.). […]

Capan-1-GFP tumor cells = assay: Coculture of CAR/iMC T cells with Capan-1-GFP tumor cells; conditions: 10 nM rimiducid
Description: FIGS. 2A-2F provide the results of assays showing that T cells cotransduced with iMC and PSCA.ζ CAR show improved tumor killing and expansion in a rimiducid-dependent manner. FIG. 2A) A schematic representation of T cells genetically modified with a CAR and iMC. FIG. 2B) T cells were transduced with PSCA.ζ CAR and either FKBP or iMC retrovirus and measured for coexpression by flow cytometry using CD19-PE and anti-CAR-APC. FIG. 2C) Non-transduced and PSCA.ζ CAR T cells modified with either FKBP or iMC were cocultured with Capan-1-GFP tumor cells at a 1:1 T cell to tumor cell ratio with and without 10 nM rimiducid. Tumor cell and T cell frequency were assessed after 7 days by flow cytometry. Tumor cell frequency was assessed by flow cytometry by measuring CD3^−GFP^+ tumor cells by SSC/GFP gating. Enrichment of T cells coexpressing iMC and CAR were assessed in coculture assays by flow cytometry by measuring CD19-PE and anti-CAR-APC frequency, respectively. FIG. 2D) T cells were subsequently assessed for CD25 expression and measured for T cell proliferation (FIG. 2E) using flow cytometry and cell enumeration. FIG. 2F) T cells cotransduced with iMC or Ctrl vector, and PSCA.ζ CAR were cocultured with and without Capan-1 tumor cells, and with and without 10 nM rimiducid and the supernatants measured for IL-2 levels after 48 hours. * indicates p-value <0.05. ** indicates p-value <0.01. […]

[1] = tested on: iMC and PSCA.ζ CAR T cells; assay: Survival of iMC and PSCA.ζ CAR T cells cultured without IL-2; assay type: cell-based, human; conditions: no exogenous IL-2 or TCR activation
Protocol: FIG. 11 provides assay results showing that iMC activation enhances CAR survival in the absence of IL-2. T cells transduced with iMC and PSCA.ζ CAR were cultured in media without IL-2 for 42 days. T cells received no treatment (media change only), αCD3 stimulation (50 ng/ml OKT3), 10 nM rimiducid (CID) or both CD3 and CID stimulation on a weekly basis. Cultures were phenotyped by flow cytometry for T cell survival (FSC/SSC) and iMC^+CAR^+ expression by flow cytometry.

CC[C@H](C(=O)N1CCCC[C@H]1C(=O)O[C@H](CCc1ccc(OC)c(OC)c1)c1cccc(OCC(=O)NCCNC(=O)COc2cccc([C@@H](CCc3ccc(OC)c(OC)c3)OC(=O)[C@@H]3CCCCN3C(=O)[C@@H](CC)c3cc(OC)c(OC)c(OC)c3)c2)c1)c1cc(OC)c(OC)c(OC)c1 (relative stereo) [rimiducid, 2-Piperidinecarboxylic acid, 1-[(2S)-1-oxo-2-(3,4,5-trimethoxyphenyl)butyl]-, 1,2-ethanediylbis [imino(2-oxo-2,1-ethanediyl)oxy-3,1-phenylene[(1R)-3-(3,4-Dimethoxyphenyl)propylidene]] ester, [2S-[1(R*),2R*[S*[S*[1(R*),2R*]]]]]-(9Cl)]
cytokines and chemokines induced (multiplex array) (iMC-modified T cells; 48 hours, iMC T cells): GM-CSF, TNF-α, IL-5, IL-6, IL-8 and IL-13 secretion were induced
cytokines not upregulated (multiplex array) (iMC-modified T cells; 48 hours, iMC T cells): production of IL-2 and other cytokines was not upregulated
IFN-γ production (iMC-modified T cells; transduced and non-transduced T cells): elicited IFN-γ production only in iMC-modified T cells
frequency of CAR+iMC+ T cells (Capan-1-GFP tumor cells): dramatic increase in the frequency of rimiducid-activated CAR^+iMC^+ T cells
survival of CAR T cells [1]: improved survival of CAR T cells in the absence of exogenous IL-2 or TCR activation
